Assay results taken from the supplement of paper PMC4894684.
Structures can show the parent of a compound that is named as a salt. ± gives the standard deviation of the averaged measurements. Among all 1,000 compounds or so, about 15 (2%) showed an effect of 50% or more. Some of the results follow.

tested on: HFF; assay: uninfected host cell viability relative to vehicle control; higher = less host cell toxicity; details: 5 µM; 72 h; oxygen 21 %
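Further: confluent HFF monolayers, run in parallel with the Toxoplasma growth screen as a host toxicity counterscreen.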

| Compound | uninfected host cell viability [%] |
| --- | --- |
| CCS(=O)(=O)N(C)[C@H]1c2cc(C#N)ccc2OC(C)(C)[C@@H]1O [(-)-[3R,4S]-Chromanol 293B] | 91.1 ± 2 |
| CNS(=O)(=O)Cc1ccc2[nH]cc(CCN(C)C)c2c1 [Sumatriptan succinate] | 99.6 ± 5 |
| CNC(=O)[C@@H](Cc1ccccc1)N(C)C(=O)[C@@H](Cc1ccc2ccccc2c1)N(C)C(=O)/C=C/CC(C)(C)N [Tabimorelin] | 79.1 ± 1.2 |
| CC(C)c1ccc(C(=O)c2cccs2)c(SCCCCCCCCN(C)C)n1 | 74.54 ± 0.56 |
| CCC(CC)(CC(=O)Nc1cccc(/C=C/c2nc(C3CCC3)cs2)c1)C(=O)O [Cinalukast] | 86.7 ± 1.5 |
| CC(C)[C@H](CO)Nc1nc(Nc2cccc(Cl)c2)c2ncn(C(C)C)c2n1 [Purvalanol A] | 78 ± 2.9 |
| NC(=O)N1c2ccccc2CC(O)c2ccccc21 (stereo not drawn) [Licarbazepine] | 86.1 ± 1.1 |
| CNC(=O)[C@H]1O[C@@H](n2cnc3c(NCc4cccc(I)c4)ncnc32)[C@H](O)[C@@H]1O | 80.94 ± 0.44 |
| N#CC(=C(/N)Sc1ccccc1N)/C(C#N)=C(/N)Sc1ccccc1N | 78.69 ± 0.74 |
| NS(=O)(=O)c1cccc2c1c([N+](=O)[O-])cc1nc(O)c(O)nc12 | 83 ± 3.5 |
| NS(=O)(=O)c1cccc2c1c([N+](=O)[O-])cc1nc(O)c(O)nc12 [NBQX disodium salt] | 87.215 ± 0.027 |
| C=CC(=O)c1ccc2ccccc2c1 | 87.4 ± 2.4 |
| COc1ccc([C@H]2CNC(=O)C2)cc1OC1CCCC1 [(S)-(+)-Rolipram] | 85.5 ± 1.8 |
| COc1ccccc1C1(O)CCN(CCCn2c3ccccc3c3ccccc32)CC1 [NNC 05-2090 hydrochloride] | 81.9 ± 1.6 |
| FC(F)(F)c1cc(COC2CCCNC2c2ccccc2)cc(C(F)(F)F)c1 [L-733,060 hydrochloride] | 78.8 ± 2.5 |
| COC(=O)c1sccc1S(=O)(=O)Nc1ccc(Nc2ccccc2)cc1OC | 77.8 ± 0.79 |
| CC1Nc2ccc(Cl)cc2S(=O)(=O)N1 (stereo not drawn) | 95.27 ± 0.86 |
| Nc1c(Br)cc(Br)cc1CN[C@H]1CC[C@H](O)CC1 [Ambroxol hydrochloride] | 83.8 ± 1.4 |
| Nc1ccc(-c2nc3ccc(-c4nc5ccc(N)cc5[nH]4)cc3[nH]2)cc1 | 89.4 ± 0.87 |
| Cc1ccc(NC(=O)C(C)C)cc1C1CCN(Cc2ccc(Oc3ccc(F)c(F)c3)cc2)CC1 | 80.8 ± 2 |
| Cc1nnc(-c2ccc3occ(-c4ccc([S+](C)[O-])cc4)c3c2)o1 (stereo not drawn) | 85.3 ± 3.4 |
| COc1ccccc1N1CCN(CC(O)COc2cccc3ccccc23)CC1 (stereo not drawn) [Naftopidil hydrochloride] | 86.6 ± 1.6 |
| CN1CCC(=C2c3ccccc3CC(=O)c3sccc32)CC1 [Ketotifen fumarate] | 86.9 ± 1.8 |
| CCCCCCCCCCC[C@@H](C[C@@H]1OC(=O)[C@H]1CCCCCC)OC(=O)[C@H](CC(C)C)NC=O [Orlistat] | 105 ± 3.2 |

| Compound | uninfected host cell viability [%] |
| --- | --- |
| COc1ccc(-c2ccc(=N)n(CCCC(=O)O)n2)cc1 | 87.1 ± 1 |
| CC(C)(Oc1ccc(Cl)cc1)C(=O)O [Clofibric acid] | 87.9 ± 1.5 |
| COc1ccc(C(=O)Nc2sc3c(c2C(N)=O)CCCC3)cc1OC | 80.1 ± 2.9 |
| O=c1cc(N2CCNCC2)oc2c(-c3ccccc3)cccc12 | 87.4 ± 1.8 |
| CC1(C)C(=O)NC2=C1C(=O)C(=O)c1ccccc12 | 65.5 ± 2 |
| CN1CCN(C2=Nc3cc(Cl)ccc3Nc3ccccc32)CC1 [Clozapine] | 81.5 ± 2 |
| CCCCCCCCCCCCCCCC(=O)NCCO [Palmitoylethanolamide] | 103 ± 4.7 |
| CC(C)NC[C@H](O)COc1ccc(CC(N)=O)cc1 [S-(-)-Atenolol] | 82.5 ± 2.5 |
| O=c1cc(N2CCOCC2)oc2c1ccc1ccccc12 | 82.9 ± 0.9 |
| COc1ccc2[nH]c(I)c(CCNC(C)=O)c2c1 [2-Iodomelatonin] | 84.3 ± 3.2 |
| CN1CCN(C2=Cc3ccccc3Oc3ccc(Cl)cc32)CC1 | 82.9 ± 3.7 |
| CN1CCc2cccc3c2[C@H]1Cc1ccc(O)c(O)c1-3 [(R)-(-)-Apomorphine hydrochloride] | 74.5 ± 3.3 |
| CC(=O)OCCNC(=O)c1cccnc1 [N-[2-(Acetoxy)ethyl]-3-pyridinecarboxamide] | 82.8 ± 3.4 |
| NCCCCNCCCN [Spermidine trihydrochloride] | 95.8 ± 6.5 |
| Nc1ncn([C@H]2C[C@H](O)[C@@H](CO)O2)c(=O)n1 [Decitabine] | 88.1 ± 2.9 |
| CCOC(=O)[C@]12CC1/C(=N\O)c1ccccc1O2 (stereo partly drawn) | 94.3 ± 2.9 |
| C[N+](C)(C)CCCCCNCC12CC3CC(CC(C3)C1)C2 | 83.7 ± 2.8 |
| COCCOC(=O)C1=C(C)NC(C)=C(C(=O)OC(C)C)C1c1cccc([N+](=O)[O-])c1 (stereo not drawn) [Nimodipine] | 89 ± 2.9 |
| CN1C(C(=O)Nc2ccccn2)=C(O)c2ccccc2S1(=O)=O [Piroxicam] | 82.4 ± 5.3 |
| O=C(CCCN1CCC(O)(c2ccc(Cl)cc2)CC1)c1ccc(F)cc1 [Haloperidol hydrochloride] | 87.4 ± 3 |
| O=c1[nH]c2cc(Cl)ccc2c(O)c1-c1cccc(Oc2ccccc2)c1 | 86.7 ± 9.3 |
| O=C(Nc1ccccc1)N[C@@H]1C[C@@H](C(=O)O)Nc2cc(Cl)cc(Cl)c21 | 87.6 ± 1.1 |
| CC(C)[C@H](NS(=O)(=O)c1ccc(-c2ccc(Br)cc2)cc1)C(=O)O | 87.2 ± 2.2 |
| O=C1NC(=O)c2cc(Nc3ccc(F)cc3)c(Nc3ccc(F)cc3)cc21 | 86.353 ± 0.013 |

| Compound | uninfected host cell viability [%] |
| --- | --- |
| COc1ccc([C@@H]2Sc3ccccc3N(CCN(C)C)C(=O)[C@@H]2OC(C)=O)cc1 [Diltiazem hydrochloride] | 99.4 ± 2.1 |
| C[C@H](NC[C@H](O)CP(=O)(O)Cc1ccccc1)c1ccc(Cl)c(Cl)c1 | 87.23 ± 0.39 |
| CC(=N)NCc1cccc(CN)c1 [1400W dihydrochloride] | 93.2 ± 1.7 |
| NS(=O)(=O)Cc1noc2ccccc12 [Zonisamide] | 88.15 ± 0.77 |
| COc1cc(N)c(Cl)cc1C(=O)CCC1CCN(CCNS(C)(=O)=O)CC1 | 80.8 ± 1.4 |
| Clc1ccc(CCCOCCCN2CCCCC2)cc1 | 101 ± 4.2 |
| Oc1nc(-c2ccc(C(F)(F)F)cc2)nc2c1CSCC2 | 83.2 ± 2.4 |
| Cc1nc2ccc(NC(=O)Nc3ccnc4cccnc34)cc2o1 | 78.41 ± 0.58 |
| Clc1cccc(Nc2nnc(-c3ccccc3)c3ccccc23)c1 | 85.8 ± 0.91 |
| CC1(C)O[C@@H]2[C@@H](CO[C@@]3(COS(N)(=O)=O)OC(C)(C)O[C@@H]23)O1 [Topiramate] | 89 ± 2.8 |
| O=C1Nc2ccc(I)cc2/C1=C/c1cc(Br)c(O)c(Br)c1 | 88.07 ± 0.46 |
| COc1cc2c(cc1OC)-c1c/c(=N\c3c(C)cc(C)cc3C)n(C)c(=O)n1CC2 [Trequinsin hydrochloride] | 78.53 ± 0.23 |
| N=C(CC(O)COc1ccccc1-c1ccccc1)N1CCCCC1 (stereo not drawn) | 89.4 ± 2.9 |
| CCCOc1ccc(Br)cc1-c1cc(-c2ccc(Cl)cc2)[nH]c1-c1ccncc1 | 86 ± 1.1 |
| Cc1nc2c(O)cccc2c(=O)[nH]1 | 84.42 ± 0.42 |
| CCCCc1nc2ccn(Cc3cccs3)c(=O)c2n1Cc1ccc(-c2ccccc2-c2nn[nH]n2)cc1 | 89.2 ± 2.5 |
| Cc1cc(F)c(Nc2ncnc3cc(OCc4ccccc4)ccc23)cc1O | 83.6 ± 3.9 |
| COc1ccc2c3c1O[C@H]1C[C@@H](O)C=C[C@@]31CCN(C)C2 [Galanthamine hydrobromide] | 89 ± 1.9 |
| O=C1c2ccccc2CCC1CNCCc1ccc(O)cc1 (stereo not drawn) [HEAT hydrochloride] | 89.7 ± 6 |
| Oc1cc(O)cc(/C=C/c2ccc(O)c(O)c2)c1 [Piceatannol] | 87.1 ± 1.1 |
| CCCCCS(=O)(=O)CCCCCCCCCCn1c(-c2ccc(O)cc2)c(C)c2cc(O)ccc21 | 90.97 ± 0.31 |
| NC(C(=O)O)c1ccc(C(=O)O)c(C(=O)O)c1 (racemic) | 90 ± 0.93 |
| Nc1ncnc2c1ncn2[C@@H]1O[C@H](CO)C[C@H]1O [Cordycepin] | 88.5 ± 4.2 |
| Nc1nc(Nc2ccccc2)nc2c1ncn2[C@@H]1O[C@H](CO)[C@@H](O)[C@H]1O | 89.8 ± 5.9 |

| Compound | uninfected host cell viability [%] |
| --- | --- |
| Cc1ccc(S(=O)(=O)/C=C/C#N)cc1 | 94.2 ± 1.7 |
| O=C(OCCN1CCCCC1)c1c[nH]c2ccccc12 | 86.1 ± 0.54 |
| Cc1cccc(C)c1NC(=O)C[N+](C)(C)C | 84.7 ± 0.16 |
| O=C1CC2(CCCC2)CC(=O)N1CCCCNCC1COc2ccccc2O1 (stereo not drawn) | 86.03 ± 0.16 |
| CCCc1c(OCCCOc2ccc(OCC(=O)O)cc2)ccc(C(C)=O)c1O | 92.4 ± 3.6 |
| CC[C@H](C)C(=O)O[C@H]1C[C@H](O)C=C2C=C[C@H](C)[C@H](CC[C@@H](O)C[C@@H](O)CC(=O)O)[C@H]21 [Pravastatin sodium salt] | 87.2 ± 2.7 |
| CN1CC(=O)N=C1NC(=O)Nc1cccc(Cl)c1 [Fenobam] | 80.93 ± 0.68 |
| CC1(C)CC(=O)C(C2C3=C(CC(C)(C)CC3=O)Oc3ccccc32)C(=O)C1 (stereo not drawn) | 86.9 ± 2.4 |
| O=S(=O)(c1cccc2c(Cl)cccc12)N1CCCNCC1 [ML 9 hydrochloride] | 83.68 ± 0.6 |
| CNCC[C@@H](Oc1ccccc1C)c1ccccc1 [Tomoxetine hydrochloride] | 86.5 ± 2 |
| CO[C@@H]1[C@H](O)[C@@H](CO)O[C@H]1n1cnc2c(NC3CCCCC3)ncnc21 | 92.91 ± 0.28 |
| NS(=O)(=O)C#Cc1ccccc1 [Pifithrin->m] | 97.12 ± 0.7 |
| CC(C)C1C2CCC(C2)C1N (stereo not drawn) | 67.2 ± 4.1 |
| Nc1ncnc2c1nc(Br)n2[C@@H]1O[C@@H]2COP(=O)(O)O[C@H]2[C@H]1O [8-Bromo-cAMP, sodium salt] | 87.7 ± 2 |
| Nc1nccc(-c2ccc3noc(-c4ccc(Cl)cc4)c3c2)n1 [PIM 1 Inhibitor 2] | 84.3 ± 2.9 |
| CNCCCCOc1ccccc1Cc1ccccc1 [Bifemelane hydrochloride] | 87.7 ± 3 |
| O=C1NN(C(=O)Nc2ccc(Br)cc2)[C@@H](c2ccccc2)[C@@H]1c1ccccc1 | 91.67 ± 0.67 |
| N[C@@H]1CCN(O)C1=O | 93.8 ± 8.6 |
| CCN(CC)CC1CCCCN1CC(=O)N1c2ccccc2C(=O)Nc2cccnc21 (stereo not drawn) | 83.86 ± 0.46 |
| NC(=O)Nc1sc(-c2ccc(F)cc2)cc1C(N)=O | 78.61 ± 0.24 |
| Cn1cc(C2=C(c3cn(CCCSC(=N)N)c4ccccc34)C(=O)NC2=O)c2ccccc21 [Ro 31-8220 mesylate] | 14.2 ± 0.54 |
